Measurements from PubChem BioAssay AID2675 (National Center for Advancing Translational Sciences (NCATS), 2010).
About 100 (0.036%) of roughly 280,000 compounds were called active. The shares of active, inactive and inconclusive entries below differ from those in the screen. The call rests on the fitted dose curve; in most records, active means well fitted inhibition curve with a large enough effect in the signal ratio, with a control signal flat (not every such curve was filed as active); inconclusive means small, poorly fitted or top-dose-only effect, or effect the other way, or a change in a side signal; inactive means no such curve, though single readings can be large or run the other way; the % refers to the signal ratio. Where the call is inconclusive, the potency comes from a doubtful curve fit. “Side channel” marks fits to a control or component signal instead of the main read-out.

target: Muscleblind-like protein 1 (Homo sapiens) (UniProt Q9NR56); test: qHTS Assay for Inhibitors of MBNL1-poly(CUG) RNA binding; conditions: TR-FRET MBNL1-His/biotin-(CUG)12 binding, 665/545 ratio; series mostly up to 57.5 µM
Chain of UniProt Q9NR56 (Q9NR56 whole entry, looked up): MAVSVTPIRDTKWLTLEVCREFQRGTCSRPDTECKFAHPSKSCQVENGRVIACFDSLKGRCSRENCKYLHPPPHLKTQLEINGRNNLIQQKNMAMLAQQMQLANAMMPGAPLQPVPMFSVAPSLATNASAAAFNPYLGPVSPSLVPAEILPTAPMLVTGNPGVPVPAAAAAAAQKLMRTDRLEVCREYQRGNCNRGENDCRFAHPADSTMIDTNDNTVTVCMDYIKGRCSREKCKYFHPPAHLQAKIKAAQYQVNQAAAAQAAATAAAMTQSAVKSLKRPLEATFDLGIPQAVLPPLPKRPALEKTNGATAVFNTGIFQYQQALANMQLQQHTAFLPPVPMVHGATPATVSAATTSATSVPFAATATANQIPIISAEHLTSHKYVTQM
In short: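 TR-FRET between His-tagged MBNL1 and biotin-(CUG)12 RNA, detected with Tb anti-His antibody (0.055 ng/ul) and streptavidin-XL665 (5 nM), 60 min at room temperature. Compounds titrated 92 nM to 58 uM; 665/545 nm ratio normalized to buffer and complex controls.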
Potency means the concentration at half of the fitted maximal effect; tags describe the fitted curve by direction and shape or compound fluorescence and quenching.

| Compound | Potency |
| --- | --- |
| C/C(=N\O)c1c(O)cc(-c2ccccc2)n(-c2ccccc2)c1=O | inactive |
| CC1(C)C=C(c2ccc(C=O)s2)CC(C)(C)N1C=O | inconclusive: 14.1 µM [quencher, side channel, partial curve] |
| Cc1nn(C(=O)c2cccc([N+](=O)[O-])c2)c(C)c1Br | inconclusive: 31.6 µM [quencher, side channel, single point] |
| CCCCCSc1nnc2c(n1)OC(C)N(C(C)=O)c1ccccc1-2 (centres undefined) | inconclusive: 14.1 µM [quencher, side channel, partial curve] |
| CCNc1ccc(Br)cc(C(=O)/C=C/c2ccc3c(c2)OCO3)c1=O | inactive |
| Cc1cc(=O)oc2cc(NC(=O)c3cc4ccccc4o3)ccc12 | inactive |
| CC(C)Cn1c(N)c(C(=O)COC(=O)c2ccc3ccccc3n2)c(=O)n(C)c1=O | inconclusive: 25.1 µM [quencher, single point] |
| COc1cc(/C=N/Nc2nc(=O)[nH]nc2C)cc(OC)c1O | inconclusive: 20 µM [quencher, partial curve] |
| Cc1ccc(S(=O)(=O)Nc2ccc(-c3csc(-c4ccccc4)n3)cc2)cc1 | inconclusive: 39.8 µM [quencher, side channel, single point] |
| O=C(NCCC1=CCCCC1)c1ccc(=O)oc1 | inconclusive: 14.1 µM [quencher, side channel, partial curve] |
| Cn1c(SCc2ccccn2)nnc1-c1ccccc1 | inconclusive: 100 µM [inhibitor, single point] |
| CC(=O)c1cc2c(cc1NC(=O)CCNC(=O)c1ccccc1Cl)OCO2 | inconclusive: 17.8 µM [quencher, side channel, single point] |
| Cc1ccc(-c2cn3cccnc3n2)cc1 | inconclusive: 25.1 µM [quencher, partial curve] |
| CC(C)(C)C(=O)Nc1cccc(-c2nnc(-c3cccc(NC(=O)C(C)(C)C)c3)o2)c1 | inconclusive: 39.8 µM [quencher, side channel, single point] |
| O=C(NCCc1ccccc1)c1cnc2ccccn2c1=O | inconclusive: 22.4 µM [quencher, side channel, partial curve] |
| O=C1C(=O)N(CCN2CCOCC2)C(c2cccc(Cl)c2)/C1=C(\O)c1ccc2c(c1)OCCO2 (centres undefined) | inactive |
| NS(=O)(=O)c1ccc(CCNC(=O)c2ccc(OCC3CCCO3)cc2)cc1 (centres undefined) | inconclusive: 2.51 µM [quencher, side channel, full curve] |
| Cc1cc(C)n2nc(C(=O)N/N=C/C=C/c3ccccc3)nc2n1 | inconclusive: 10 µM [quencher, side channel, partial curve] |
| O=C(COC(=O)c1cccs1)Nc1ccccc1[N+](=O)[O-] | inconclusive: 15.8 µM [quencher, side channel, partial curve] |
| O=C(NNc1c2ccccc2nc2ccccc12)c1cccc(O)c1 | inconclusive: 11.2 µM [quencher, side channel, partial curve] |

| Compound | Potency |
| --- | --- |
| O=C(O)c1cccc(N/N=C/c2cccc3ccccc23)c1 | inactive |
| CC(=O)N(/N=C1\Sc2ccccc2C1=O)c1cccc(C)c1 | inconclusive: 8.91 µM [quencher, side channel, full curve, poor fit] |
| Cc1ccc(NC(=O)CCS(=O)(=O)c2cccc3nonc23)c(Cl)c1 | inconclusive: 8.91 µM [quencher, side channel, partial curve] |
| Nc1ccc(C(=O)N/N=C\C=C\c2cccc([N+](=O)[O-])c2)cc1 | inconclusive: 14.1 µM [quencher, side channel, partial curve] |
| Cc1cccc(CN2CCN(C(c3ccccc3)c3ccc(Cl)cc3)CC2)c1 (centres undefined) | inconclusive: 79.4 µM [inhibitor, single point] |
| O=[N+]([O-])c1cc([N+](=O)[O-])c(Oc2cc(F)ccc2F)cc1NN1CCCCC1 | inconclusive: 0.708 µM [fluorescent, side channel, single point] |
| CC(N=Cc1cc([N+](=O)[O-])ccc1O)c1ccccc1 (centres undefined) | inconclusive: 12.6 µM [quencher, side channel, partial curve] |
| Cc1cccc(NCCC(=O)c2ccc(Br)cc2)c1 | inactive |
| Cc1cc(NC(=O)c2cc(-c3cccs3)on2)no1 | inactive |
| CCOc1ccc(NC(=O)Cn2nnc(C(=O)NCc3ccc4c(c3)OCO4)c2N)cc1 | inactive |
| CCc1ccc(CN(C)Cc2nc(COc3ccccc3)no2)nc1 | inactive |
| CCc1cc2c(-c3ccccc3)cc(=O)oc2c(CN2CCOCC2)c1O | inconclusive: 14.1 µM [quencher, side channel, partial curve] |
| CCCOc1ccc(C2=CSC3=NCCN23)cc1[N+](=O)[O-] | inconclusive: 15.8 µM [quencher, side channel, partial curve] |
| O=C(O)c1ccc2c(c1Nc1ccccc1)C(=O)c1ccccc1C2=O | inconclusive: 22.4 µM [quencher, side channel, partial curve] |
| O=C(O)c1ccc2c(c1)C(=O)N(CCCCCCCN1C(=O)c3ccc(C(=O)O)cc3C1=O)C2=O | inconclusive: 31.6 µM [quencher, side channel, single point] |
| COC(=O)c1ccc(CN2CCC(CO)(CCOc3ccccc3)CC2)cc1 | inactive |
| Oc1oc(-c2ccccc2Br)nc1/C=N/c1ccccn1 | inconclusive: 15.8 µM [quencher, side channel, partial curve] |
| COc1ccc(C(=O)Nc2ccc(S(=O)(=O)N3CCN(C)CC3)cc2)cc1[N+](=O)[O-] | inconclusive: 14.1 µM [quencher, partial curve] |
| COc1cc2c(cc1OC)/C(=C/C(=O)c1ccc(NC(C)=O)cc1)NCC2 | inconclusive: 11.2 µM [quencher, side channel, partial curve] |
| O=Cc1cnc(N2CCN(c3ccccc3)CC2)s1 | inconclusive: 22.4 µM [quencher, side channel, partial curve] |

| Compound | Potency |
| --- | --- |
| CC(C)c1ccccc1NC(=O)Cn1c(-c2ccccc2Cl)nc2ccccc21 | inconclusive: 0.141 µM [inhibitor, full curve, poor fit] |
| CC1(C)Cc2c(sc3[nH]c(=S)n(Cc4ccco4)c(=O)c23)CO1 | inactive |
| CCOC(=O)c1ccc(NC(=S)N2CCN(CCN=CC3=C(O)CC(C)(C)CC3=O)CC2)cc1 | inconclusive: 25.1 µM [quencher, side channel, partial curve] |
| Cc1nnc2c(-c3ccccc3)nc3ccccc3n12 | inconclusive: 3.55 µM [quencher, side channel, full curve] |
| Cc1ccc(NC(=O)c2ccc([N+](=O)[O-])cc2Cl)nc1 | inconclusive: 15.8 µM [quencher, side channel, partial curve] |
| COc1ccc(N2CC(C(=O)Nc3ccc4c(c3)OCO4)CC2=O)cc1 (centres undefined) | inconclusive: 0.562 µM [quencher, side channel, single point] |
| C=CCNC(=O)c1ccc2nc(-c3ccccc3)c(-c3ccccc3)nc2c1 | inconclusive: 17.8 µM [quencher, side channel, partial curve] |
| COCCn1c(/C=C/c2ccccc2)nc2ccccc21 | inconclusive: 31.6 µM [quencher, side channel, single point] |
| COCCNC(=O)CCc1c(C)nc2c(c(C)nn2-c2ccc(C)c(C)c2)c1C | inconclusive: 39.8 µM [fluorescent, single point] |
| NNC(=O)c1cc2nc(-c3cccs3)cc(C(F)(F)F)n2n1 | inconclusive: 25.1 µM [quencher, side channel, partial curve] |
| Cc1cc(C)cc(C(=O)NC(CC(N)=O)c2ccc(NCCN3CCOCC3)c([N+](=O)[O-])c2)c1 (centres undefined) | inconclusive: 8.91 µM [quencher, side channel, partial curve] |
| COc1ccc(NC(=O)CCc2nnc3ccc(NCc4ccc5c(c4)OCO5)nn23)cc1 | inconclusive: 28.2 µM [fluorescent, side channel, single point] |
| CN(C)c1ccc(/C=C/C=C2/SC(=S)N(c3ccccc3)C2=O)cc1 | inconclusive: 14.1 µM [quencher, side channel, partial curve] |
| COc1ccc(CN2C(=O)c3cccnc3C2=O)cc1S(=O)(=O)NCc1ccc(C)cc1 | inconclusive: 3.16 µM [quencher, side channel, full curve, poor fit] |
| O=C(COc1ccccc1)NC(NC(=S)Nc1ccccc1C(=O)O)C(Cl)(Cl)Cl (centres undefined) | inactive |
| CCOc1cccc(CNc2ccc(O)cc2)c1OCc1ccc(Cl)cc1 | inconclusive: 14.1 µM [quencher, side channel, partial curve] |
| COc1cc(C(=O)NCC(=O)N/N=C/c2ccc(-c3cccc([N+](=O)[O-])c3)o2)cc(OC)c1OC | inconclusive: 15.8 µM [quencher, side channel, partial curve] |
| COc1ccc(-c2ccc(=O)n(CC(=O)Nc3cccc(O)c3)n2)cc1OC | inconclusive: 14.1 µM [quencher, side channel, partial curve] |
| COc1cc(C(C(=O)NC2CCCCC2)N(C(=O)Cc2c[nH]c3ccccc23)c2ccccc2C)cc(OC)c1OC (centres undefined) | inconclusive: 0.708 µM [inhibitor, full curve, poor fit] |
